Screen size: about 120,000 compounds; about 5,300 (4.4%) were called active. The shares of active, inactive and inconclusive entries below differ from those in the screen. The call rests on the fitted dose curve; in most records, active means well fitted inhibition curve with a large enough effect; inconclusive means small, poorly fitted or top-dose-only effect; inactive means no such curve, though single readings can be large or run the other way. Potencies beside an inconclusive call are fits to weak or partial responses and may not hold up.
Assay: qHTS Primary assay for Inhibitors of Plasmodium falciparum Dd2 growth in vitro; further: nearly all actives have a fitted effect of over 65% in size
Settings: P. falciparum Dd2 growth, SYBR Green, 72 h; series mostly up to 28.9 µM
Method in brief: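 Readout: SYBR Green fluorescence, 485 nm excitation, 535 nm emission, after ~16 h lysis at 37C. Before that, Dd2-infected red cells (2.5% hematocrit) grew 72 h with compound, 29 uM top final concentration.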
Potency means the concentration at half of the fitted maximal effect; tags describe the fitted curve by direction and shape.

Q: Which Potency does the source give for `CC(C)N1C(=O)C2(CCCCC2)C1C(=O)NCC1CC1` (configuration not stated) here?
A: inactive

Q: With `CN(C)C[C@@H]1CN(Cc2ccccc2)C[C@H]1NC(=O)c1cc(C2CC2)[nH]n1` as the compound, how does the Potency read?
A: inconclusive: 7.94 µM [inhibitor, single point]

Q: For `Cn1nc(-c2ccccc2F)c2cc(C(=O)N3CCN(c4ccc(F)cc4)CC3)sc21`, which Potency is on record?
A: inactive

Q: For `CCOC(=O)c1[nH]c(C)c(CCC(=O)NCc2ccccc2C)c1C`, which Potency is on record?
A: inconclusive: 20 µM [inhibitor, single point]

Q: For `O=C(Nc1cccc(C(F)(F)F)c1)c1nc2c(o1)CCN(Cc1nccs1)CC2`, which Potency is on record?
A: inconclusive: 3.16 µM [inhibitor, partial curve, poor fit]

Q: Which Potency does the source give for `CCn1cc(S(=O)(=O)c2ccc(C)cc2)c(=O)c2cc(F)c(N3CCCCCC3)cc21` here?
A: inconclusive: 3.98 µM [inhibitor, partial curve, poor fit]

Q: For `CCCN1CCN(CCCNC(=O)Cn2c(-c3cccs3)cc3ccccc32)CC1`, which Potency is on record?
A: inconclusive: 8.91 µM [inhibitor, partial curve]

Q: For `O=C(C1Cn2cccc2C(=O)N1Cc1ccccc1)N1CCN(c2ncccn2)CC1` (configuration not stated), which Potency is on record?
A: inconclusive: 2 µM [inhibitor, partial curve]

Q: For `CCC(C)NC(=O)Cn1c(=O)n(Cc2ccc(C(=O)NCc3ccccc3OC)cc2)c(=O)c2ccccc21` (configuration not stated), which Potency is on record?
A: inconclusive: 17.8 µM [inhibitor, single point]

Q: Which Potency does the source give for `O=C1NC(=NC2CCCCC2)C2(CCCN([S+](=O)([O-])c3cccc(C(F)(F)F)c3)C2)N1c1cccnc1` (configuration not stated) here?
A: inconclusive: 14.1 µM [inhibitor, partial curve, poor fit]

Q: Which Potency does the source give for `COCCN1C(=O)c2ccccc2C(C(=O)Nc2nc(C(=O)OC)c(C(C)C)s2)C12CCCC2` (configuration not stated) here?
A: active: 11.2 µM

Q: For `COCCNC(=O)N1CCC(c2cc(-c3ccc(F)cc3)n[nH]2)CC1`, which outcome is on record?
A: inactive [at 5.79 µM]

Q: With `CCN1CCN(c2c(S(=O)(=O)c3ccccc3)cnc3ccc(Cl)cc23)CC1` as the compound, how does the Potency read?
A: inconclusive: 10 µM [inhibitor, partial curve, poor fit]

Q: Which Potency does the source give for `COc1ccc(-c2nc(C3CC(=O)N(C4CCCCC4)C3)no2)cc1` (configuration not stated) here?
A: inactive

Q: Which Potency does the source give for `CC(C)Cc1cn(CC2CCCN(C(=O)NC3CCCCCC3)C2)nn1` (configuration not stated) here?
A: inactive

Q: Which Potency does the source give for `O=C(c1ccc(N2CCC(O)CC2)nc1)N1CCC(Oc2cccnc2)CC1` here?
A: inactive

Q: Which Potency does the source give for `COCCn1c(C)cc(O)c(C(c2ccc(C)cc2)N2CCCCC2)c1=O` (configuration not stated) here?
A: inactive

Q: For `Cc1nc(-c2c3n(c(=O)n(Cc4ccc(Cl)cc4)c2=O)CCCC3)no1`, which Potency is on record?
A: inconclusive: 20 µM [inhibitor, single point]

Q: With `CC(=O)N1c2ccccc2C(=O)C1N1CCN(c2cccc(C(F)(F)F)c2)CC1` (configuration not stated) as the compound, how does the Potency read?
A: inconclusive: 10 µM [inhibitor, single point]

Q: With `CCC(=O)N(C1CCOCC1)C1CCN(S(=O)(=O)c2ccc(F)c(C)c2)CC1` as the compound, how does the Potency read?
A: inconclusive: 10 µM [inhibitor, partial curve, poor fit]

Q: For `O=C(c1ccc(=O)[nH]c1)N1C[C@@H](CN2CCCC2)[C@@H](CO)C1`, which Potency is on record?
A: inactive

Q: Which Potency does the source give for `COCc1c(C(=O)N2C[C@@H](CO)[C@H](c3ccccn3)C2)noc1C` here?
A: inactive

Q: For `COc1ccccc1N(CC(=O)Nc1ccc(C)c(Cl)c1)S(=O)(=O)c1ccc(C)cc1`, which Potency is on record?
A: inconclusive: 11.2 µM [inhibitor, single point]

Q: For `Cn1nnnc1C1CCCN(C(=O)c2ccccc2F)C1` (configuration not stated), which Potency is on record?
A: inactive

Q: With `CN1C(=O)CO[C@H]2CN(C(=O)c3ccccn3)C[C@H]21` as the compound, how does the Potency read?
A: inactive

Q: With `Cc1c(CN2CCCC(COc3ccccc3C(=O)N3CCC(C)CC3)C2)cnn1C` (configuration not stated) as the compound, how does the Potency read?
A: inconclusive: 17.8 µM [inhibitor, single point]

Q: For `Cc1nc(-c2ccc(N(C)C)cc2)cc([C@H]2CN3CC[C@H]2C[C@@H]3CNC(=O)C2CC2)n1`, which Potency is on record?
A: inconclusive: 28.2 µM [inhibitor, single point]

Q: With `Cc1nn(-c2ccccn2)c(C)c1[C@@H]1C=C[C@@H](NC(=O)NC(C)C)C1` as the compound, how does the Potency read?
A: inconclusive: 17.8 µM [inhibitor, partial curve, poor fit]

Q: Which Potency does the source give for `Cc1cc(C)cc(C(=O)N2CCC(n3cnnc3-c3ccccc3)CC2)c1` here?
A: inconclusive: 12.6 µM [inhibitor, single point]

Q: With `Cc1cnc(CC2CCN(S(=O)(=O)c3ccc(C#N)cc3)C2)n1Cc1ccccc1` (configuration not stated) as the compound, how does the Potency read?
A: inconclusive: 5.01 µM [inhibitor, partial curve, poor fit]

Q: Which Potency does the source give for `CCOC(=O)c1c(NC(=O)CSc2cn(CCNC(=O)c3ccccc3OC)c3ccccc23)sc2c1CCC2` here?
A: active: 11.2 µM

Q: For `C=CCN(CC=C)C(=O)C1CCCN(C2CCN(C3Cc4ccccc4C3)CC2)C1` (configuration not stated), which Potency is on record?
A: inconclusive: 10 µM [inhibitor, single point]

Q: With `CC(C)c1nc2n(n1)C1(CCCCC1)[C@@H]1CCCC[C@@H]1N2` as the compound, how does the Potency read?
A: inconclusive: 17.8 µM [inhibitor, single point]

Q: For `CCc1nncn1C1CCN(S(=O)(=O)c2ccccc2C)CC1`, which Potency is on record?
A: inactive

Q: For `COc1ccc(-c2cc3c(=O)n(CCNC(=O)c4ccc(OC)c(OC)c4)ccn3n2)cc1`, which Potency is on record?
A: inconclusive: 0.501 µM [inhibitor, full curve, poor fit]

Q: Which Potency does the source give for `CC1CCC2(CC1)NC(=O)N(CC(=O)Nc1ccc3c(c1)OCCO3)C2=O` (configuration not stated) here?
A: inconclusive: 11.2 µM [inhibitor, partial curve, poor fit]

Q: For `Cc1ccc(C(=O)N2CCC3(CC2)c2nccn2-c2ccccc2CN3C)cc1C`, which Potency is on record?
A: inconclusive: 1.26 µM [inhibitor, partial curve, poor fit]

Q: Which Potency does the source give for `N#Cc1cccc(NC(=O)N[C@H]2[C@H](O)[C@@H](N3CCCCC3)[C@@H]3OC[C@H]2O3)c1` here?
A: inactive

Q: For `Fc1ccccc1Nc1nc(-c2ccccc2)no1`, which Potency is on record?
A: inconclusive: 11.2 µM [inhibitor, partial curve, poor fit]

Q: For `CCCc1noc(-c2ccn3c(CNC(=O)c4ccc(C)c(C)c4)nnc3c2)n1`, which Potency is on record?
A: inconclusive: 3.98 µM [inhibitor, single point]

Q: For `CS(=O)(=O)N1C[C@@H]2CN(C(=O)C3CCOCC3)C[C@]2(C(=O)O)C1`, which Potency is on record?
A: inactive

Q: Which Potency does the source give for `O=C(c1ccccc1Br)N1CCN(c2cc(-c3ccc(Cl)cc3)[nH]n2)CC1` here?
A: inactive

— PubChem BioAssay AID1347417 (National Center for Advancing Translational Sciences (NCATS), 2020)
